This note sets out measurements from the supplement of paper PMC11283458.

Common to all, as to assay: delta PSI of alternative exon relative to 0.4% DMSO control (RT-PCR) (percentage points); higher = more exon inclusion
Conditions in all cases: concentration: not stated (optimised per compound); Neuro-2a

In assay [1] the test system is Asph alternative exon (endogenous). On the procedure: (§1)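 Reads PSI of the Mef2d reporter microexon and of endogenous mouse neural alternative exons. dPSI is relative to the 0.4% DMSO control, single replicate.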
In assay [2] the test system is Trappc9 microexon (endogenous). On the procedure: as §1
In assay [3] the test system is Ergic3 microexon (endogenous). Here is the method: as §1
Assay [4] relates to Mgrn1 alternative exon (endogenous). Here is the method: as §1

Some of the results follow. Many values rest on one well or one pass, so single values are uncertain.
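Note: exons read include endogenous Mef2d, Mast2, Ergic3 and Trappc9 microexons plus the longer neural-regulated Zdhhc20, Mgrn1 and Asph cassette exons, alongside the reporter microexon.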

Turning to `O=C1NC(=O)C(=CC=Cc2ccccc2)C(=O)N1`, the “delta PSI of alternative exon” value in assay [1] is -0.692; in assay [2] it was 0.958.

On to `COc1ccc(/C=C/C=C2C(=O)NC(=O)NC2=O)cc1`, for which the “delta PSI of alternative exon” value is 0.164 in assay [1] and -2.7 in assay [2].

For the compound `CC(=O)OC(C)(C)C=CC(=O)[C@](C)(O)[C@H]1[C@H](O)C[C@@]2(C)[C@@H]3CC=C4[C@@H](CC[C@H](O)C4(C)C)[C@]3(CO)C(=O)C[C@]12C`, the “delta PSI of alternative exon” value was 3.16 in assay [3] and 7.74 in assay [4].

Consider `Cc1n[nH]c2ccc(-c3cncc(OC[C@@H](N)Cc4c[nH]c5ccccc45)c3)cc12`, for which the “delta PSI of alternative exon” value came out at 15.6 in assay [3] and 4.46 in assay [4].
